Molecules are shown by their SMILES. In all, about 39,000 compounds went through this assay and about 220 (0.56%) showed activity. Some of the results follow.
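Note: static incubation at 37 °C against the wild-type strain, values averaged over two biological replicates.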

This assay deals with Escherichia coli K-12 BW25113. The experiment in a line: relative growth (OD600 normalised to plate interquartile mean) (fraction); higher = less growth inhibition, active = 0.2 or less. Particulars: 50 µM; LB; incubation time: overnight (16-24 h).
As for `N=c1ccn2c(n1)O[C@H]1[C@H](O)[C@@H](CO)O[C@H]12`, the relative growth is inactive: 1.03.

Regarding `O=C(C[C@@H]1C=C[C@H](NC(=O)Cc2ccccn2)[C@@H](CO)O1)NCCCN1CCOCC1`, the relative growth is inactive: 1.02.

Turning to `O=C(C[C@@H]1CC[C@@H]2[C@H](COC[C@H](O)CN2S(=O)(=O)c2ccccc2)O1)NCCN1CCCCC1`, the relative growth was inactive: 1.03.

For `CC(C)NC(=O)Nc1cccc2c1O[C@H](CN(C)Cc1ccc(-c3ccccc3)cc1)[C@@H](C)CN([C@H](C)CO)C2=O`, the relative growth is inactive: 1.03.

As for `Cc1noc(C)c1NC(=O)Nc1ccc2c(c1)C(=O)N([C@@H](C)CO)C[C@@H](C)[C@@H](CN(C)S(=O)(=O)c1ccc(Cl)cc1)OCCCC[C@H](C)O2`, the relative growth is inactive: 0.971.

With `O=C1OCCC/C=C\[C@H]2O[C@@]34C=CCN(c5ccc6ccccc6c5)C(=O)[C@H]3N(CCCO)C(=O)[C@@H]4[C@@H]12`, the relative growth was inactive: 0.979.

Consider `COc1ccc(S(=O)(=O)Nc2ccc3c(c2)C(=O)N([C@@H](C)CO)C[C@H](C)[C@H](CN(C)S(=O)(=O)c2ccc(Cl)cc2)OCCCC[C@H](C)O3)cc1`, for which the relative growth was inactive: 1.01.

For the compound `O=C(C[C@@H]1C=C[C@@H](NC(=O)Nc2cc(F)ccc2F)[C@@H](CO)O1)NCCCN1CCOCC1`, the relative growth is inactive: 0.974.

Turning to `CCOc1cc(C)nc(N)n1`, the relative growth was inactive: 0.974.

Regarding `C[C@@H]1CCCCO[C@@H](CN(C)Cc2ccc(Cl)c(Cl)c2)[C@@H](C)CN([C@H](C)CO)C(=O)c2cc(NC(=O)Nc3cccc4ccccc34)ccc2O1`, the relative growth is inactive: 1.04.

As to `C[C@@H]1CN([C@H](C)CO)C(=O)c2cc(NC(=O)Nc3ccccc3)ccc2O[C@@H](C)CCCCO[C@H]1CN(C)C(=O)c1ccccc1`, the relative growth was inactive: 1.01.

Regarding `O=C(CO)C(O)C(O)C(O)CO` (stereo not given), the relative growth is inactive: 0.972.

As to `COc1ccc(S(=O)(=O)Nc2ccc3c(c2)C(=O)N([C@@H](C)CO)C[C@@H](C)[C@@H](CN(C)CC2CCCCC2)OCCCC[C@H](C)O3)cc1`, the relative growth was inactive: 1.01.

Turning to `C[C@H]1CN([C@@H](C)CO)S(=O)(=O)c2ccc(Br)cc2O[C@@H]1CN(C)CC1CCOCC1`, the relative growth was inactive: 1.04.

`C[C@@H]1CN([C@@H](C)CO)C(=O)c2cc(NS(=O)(=O)c3ccc(Cl)cc3)ccc2O[C@@H](C)CCCCO[C@H]1CN(C)C(=O)c1ccncc1`: the relative growth was inactive: 1.02.

`C[C@@H]1CN([C@H](C)CO)C(=O)c2cccc(NC(=O)NC3CCCCC3)c2O[C@H]1CN(C)Cc1ccc(C(F)(F)F)cc1`: the relative growth is inactive: 0.884.

Consider `COc1ccc(S(=O)(=O)N(C)C[C@@H]2OCCCC[C@@H](C)Oc3ccc(NC(=O)CCCCCC(=O)Nc4ccccc4N)cc3C(=O)N([C@H](C)CO)C[C@@H]2C)cc1`, for which the relative growth is inactive: 1.01.

`CC(C)NC(=O)N(C)C[C@@H]1Oc2c(NS(=O)(=O)c3cn(C)cn3)cccc2C(=O)N([C@H](C)CO)C[C@@H]1C`: the relative growth is inactive: 1.01.

Turning to `COc1ccccc1CN(C)C[C@@H]1OCc2ccccc2-c2c(n(C)c3ccccc23)C(=O)N([C@H](C)CO)C[C@H]1C`, the relative growth is inactive: 1.

Regarding `C[C@@H]1CN([C@@H](C)CO)C(=O)c2cc(NS(C)(=O)=O)ccc2O[C@@H]1CN(C)C(=O)Nc1ccc2c(c1)OCO2`, the relative growth is inactive: 1.02.

`O=C(C[C@@H]1CC[C@@H](NS(=O)(=O)c2ccc(F)cc2)[C@H](CO)O1)NCc1ccc(Cl)c(Cl)c1`: the relative growth was inactive: 0.986.

Regarding `CC(C)CC#Cc1ccc2c(c1)O[C@@H](CN(C)C(=O)c1ccncc1)[C@@H](C)CN([C@H](C)CO)S2(=O)=O`, the relative growth was inactive: 0.968.

As for `COc1cccc(CNc2nn[nH]n2)c1OC`, the relative growth is inactive: 1.

As to `C[C@H](CO)N1C[C@H](C)[C@@H](CN(C)S(=O)(=O)c2cccs2)Oc2ccc(NC(=O)CCN3CCOCC3)cc2C1=O`, the relative growth was inactive: 0.981.

Turning to `O=C(NCCN1CCNCC1)c1ccccn1`, the relative growth is inactive: 1.01.

Take `NNC(=O)CNC(=O)[C@H]1COc2ccccc2O1`: the relative growth is inactive: 0.935.

For `O=C(Nc1cccc2cccnc12)[C@@H]1[C@H](c2ccc(C(F)(F)F)cc2)CC(=O)N1C(=O)OCc1ccccc1`, the relative growth is inactive: 1.02.

`CCCNC(=O)N1C[C@]2(CCN(CC2)S(=O)(=O)c2ccc(cc2)OC)c2c(n(c3cc(ccc23)OC)C)[C@@H]1CO`: the relative growth is inactive: 1.04.

Regarding `Cc1occc1C(=O)NNC(=O)C1CC1`, the relative growth is inactive: 1.03.

As for `CCS(=O)(=O)N1C[C@]2(CN(C2)C(=O)Nc2ccc(cc2F)F)c2c(n(c3cc(ccc23)OC)C)[C@@H]1CO`, the relative growth was inactive: 1.

Consider `Nc1cc(=O)[nH]c(=O)n1Cc1ccccc1`, for which the relative growth was inactive: 1.

As for `COCC(=O)N(C)C[C@H]1Oc2cc(-c3ccc(C#N)cc3)ccc2S(=O)(=O)N([C@@H](C)CO)C[C@H]1C`, the relative growth is inactive: 1.

With `O=C(C[C@@H]1CC[C@H]2[C@@H](COC[C@H](O)CN2S(=O)(=O)c2ccc(Cl)cc2)O1)NCCN1CCCC1`, the relative growth was inactive: 1.

Take `O=C(C[C@H]1CC[C@H]2[C@@H](COC[C@@H](O)CN2C(=O)Nc2ccc3c(c2)OCO3)O1)N1CCN(c2ccccc2)CC1`: the relative growth was inactive: 1.02.

Regarding `Cn1cnc(S(=O)(=O)N2C[C@H](O)COC[C@@H]3O[C@H](CC(=O)NCc4cccc(F)c4)CC[C@H]32)c1`, the relative growth is inactive: 0.988.

On to `Cc1cn([C@H]2C[C@@H](NC(=O)C(C)(C)C)[C@@H](CO)O2)c(=O)[nH]c1=O`, for which the relative growth was inactive: 1.02.

Consider `COc1ccc(S(=O)(=O)N(C)C[C@@H]2Oc3ccc(NC(=O)C4CC4)cc3CC(=O)N([C@@H](C)CO)C[C@H]2C)cc1`, for which the relative growth was inactive: 0.999.

Consider `C[C@@H]1CN([C@H](C)CO)C(=O)Cc2cc(NC(=O)C3CC3)ccc2O[C@@H]1CN(C)C(=O)NC1CCCCC1`, for which the relative growth is inactive: 0.991.

Regarding `C[C@@H]1CN([C@@H](C)CO)C(=O)c2cccc(NC(=O)C3CCOCC3)c2O[C@H]1CN(C)Cc1ccc(-c2ccccc2)cc1`, the relative growth was inactive: 1.04.

`COc1ccc(NC(=O)N(C)C[C@H]2Oc3c(NS(C)(=O)=O)cccc3C(=O)N([C@@H](C)CO)C[C@H]2C)cc1`: the relative growth is inactive: 1.01.

On to `Cn1c(=O)c2c(nc(S(C)(=O)=O)n2C)n(C)c1=O`, for which the relative growth was inactive: 1.

Regarding `COc1ccc(S(=O)(=O)Nc2ccc3c(c2)C(=O)N([C@@H](C)CO)C[C@H](C)[C@H](CN(C)C(=O)Nc2c(C)noc2C)O3)cc1`, the relative growth is inactive: 0.985.

With `C[C@@H]1CN([C@H](C)CO)C(=O)CCCn2nncc2CO[C@H]1CN(C)S(=O)(=O)c1ccc2c(c1)OCCCO2`, the relative growth was inactive: 1.

As to `C[C@H](CO)N1C[C@H](C)[C@@H](CN(C)S(C)(=O)=O)OCCCC[C@H](C)Oc2ccc(NC(=O)Nc3ccc(C(F)(F)F)cc3)cc2C1=O`, the relative growth was inactive: 0.998.

As to `C[C@@H]1CCCCO[C@H](CN(C)C(=O)C2CCCCC2)[C@@H](C)CN([C@@H](C)CO)C(=O)c2cc(NS(=O)(=O)c3ccc(F)cc3)ccc2O1`, the relative growth is inactive: 1.04.

As for `COc1ccc(NC(=O)N(C)C[C@H]2OCCCC[C@H](C)Oc3ccc(NC(=O)Nc4ccc(F)cc4)cc3C(=O)N([C@@H](C)CO)C[C@H]2C)cc1`, the relative growth was inactive: 1.01.

For the compound `Cc1ccc(S(=O)(=O)N(C)C[C@H]2Oc3c(NS(=O)(=O)c4ccccc4)cccc3C(=O)N([C@@H](C)CO)C[C@@H]2C)cc1`, the relative growth is inactive: 0.989.

Consider `Oc1ccnc(S)n1`, for which the relative growth was inactive: 1.08.

As for `Cc1c(C)c(C)c(CN)c(C)c1C`, the relative growth was inactive: 1.02.

As for `O=C(Nc1cccc2cccnc12)[C@@H]1[C@H](c2ccc(I)cc2)CC(=O)N1C(=O)OCc1ccccc1`, the relative growth was inactive: 1.03.

Regarding `C[C@@H]1CN([C@H](C)CO)C(=O)c2cc(NC(=O)CCC(F)(F)F)ccc2O[C@@H]1CN(C)S(C)(=O)=O`, the relative growth is inactive: 0.993.

On to `O=C(C[C@@H]1CC[C@@H]2[C@H](COC[C@H](O)CN2C(=O)c2ccccc2)O1)NCCCN1CCOCC1`, for which the relative growth was inactive: 1.01.

Turning to `C[C@H]1CN([C@@H](C)CO)C(=O)c2cc(NC(=O)c3ccncc3)ccc2O[C@H]1CN(C)Cc1ccc(Oc2ccccc2)cc1`, the relative growth was inactive: 1.

For `C[C@H](CO)N1C[C@H](C)[C@@H](CN(C)Cc2ccc(Cl)c(Cl)c2)Oc2ccc(NC(=O)Cn3cnnn3)cc2CC1=O`, the relative growth was inactive: 0.952.

In the case of `COc1ccccc1[C@@H](NC(=O)C1CCN(CCc2ccc(Br)cc2)CC1)c1ccccn1`, the relative growth is inactive: 0.98.

`CN1Cc2c(CN3CCCC3=O)nn(C)c2C1`: the relative growth is inactive: 1.01.

Consider `C[C@@H]1CN([C@H](C)CO)C(=O)c2c(c3ccccc3n2C)-c2ccccc2CO[C@@H]1CN(C)C(=O)[C@H](C)c1ccccc1`, for which the relative growth is inactive: 1.

As to `C[C@H]1CN([C@@H](C)CO)S(=O)(=O)c2ccc(C#CC3CC3)cc2O[C@@H]1CN(C)Cc1cccc(F)c1`, the relative growth is inactive: 1.01.

With `C[C@@H]1CN([C@H](C)CO)C(=O)c2cc(NS(C)(=O)=O)ccc2O[C@@H](C)CCCCO[C@H]1CN(C)S(=O)(=O)c1ccc(F)cc1`, the relative growth is inactive: 1.02.

Consider `CN1C(=O)OC(C)(C)C1=O`, for which the relative growth was inactive: 0.914.

In the case of `C[C@@H]1CN([C@H](C)CO)C(=O)c2cccc(NC(=O)C3CCCCC3)c2O[C@@H]1CN(C)C(=O)Nc1ccc(C(F)(F)F)cc1`, the relative growth is inactive: 0.905.

Regarding `C[C@H]1CN([C@@H](C)CO)C(=O)CCCn2cc(nn2)CO[C@H]1CN(C)C(=O)Nc1ccc2c(c1)OCO2`, the relative growth was inactive: 1.

Turning to `CO[C@H]1CN(C)C(=O)c2cc(NC(=O)NC(C)C)ccc2OC[C@@H](C)N(Cc2ccc(-c3ccccn3)cc2)C[C@@H]1C`, the relative growth was inactive: 1.

For the compound `O=C(C[C@H]1CC[C@H]2[C@@H](COC[C@@H](O)CN2S(=O)(=O)c2ccc(Cl)cc2)O1)NCCN1CCCCC1`, the relative growth was inactive: 1.

Take `COc1cccc(-c2ccc3c(c2)O[C@H](CN(C)C(=O)C2CC2)[C@H](C)CN([C@@H](C)CO)S3(=O)=O)c1`: the relative growth is inactive: 1.

The values are drawn from the supplement of paper PMC9446081.
